Source: patent publication US20140248666A1 (Amgen, published 2014)

Target: T1, human sclerostin, mature form (signal peptide removed) (human, UniProt Q9BQB4 24-213)
T1 construct: 190 amino acid glycoprotein with four disulfide bonds (C1-C5, C2-C6, C3-C7, C4-C8); also called SOST; recombinant human sclerostin
T1 sequence: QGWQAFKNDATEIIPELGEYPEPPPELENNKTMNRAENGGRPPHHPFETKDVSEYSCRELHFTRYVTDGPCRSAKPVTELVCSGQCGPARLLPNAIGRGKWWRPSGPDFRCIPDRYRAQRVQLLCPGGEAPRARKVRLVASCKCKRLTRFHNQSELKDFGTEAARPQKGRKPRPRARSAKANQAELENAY
Assay: Biacore 3000; antibody captured by anti-human IgG Fc, sclerostin as analyte
Experimental: The assay format was capture of the anti-sclerostin antibody by immobilised anti-human IgG-Fc then titration of the sclerostin over the captured surface. An example of the procedure is given below: BIA (Biamolecular Interaction Analysis) was performed using a BIAcore 3000 (BIAcore AB). Affinipure F(ab′)₂ Fragment goat anti-human IgG, Fc fragment specific (Jackson
ImmunoResearch) was immobilised on a CM5 Sensor Chip via amine coupling chemistry to a capture level of ≈4000 response units (RUs). HBS-EP buffer (10 mM HEPES pH 7.4, 0.15 M NaCl, 3 mM EDTA, 0.005% Surfactant P20, BIAcore AB) containing 1 mg/mL CM-Dextran was used as the running buffer with a flow rate of 10 μl/min. A 10 μl injection of the anti-sclerostin antibody at ˜5 μg/mL was used for capture by the immobilised anti-human IgG-Fc. Antibody capture levels were typically 100-200 RU. Sclerostin was titrated over the captured anti-sclerostin antibody at various concentrations at a flow rate of 30 μL/min. The surface was regenerated by two 10 μL injections of 40 mM HCl, followed by a 5 μL injection of 5 mM NaOH at a flowrate of 10 μL/min.
Background subtraction binding curves were analysed using the BIAevaluation software (version 3.2) following standard procedures. Kinetic parameters were determined from the fitting algorithm.

B1: Antibody 20 (antibody, human IgG4 S228P, kappa)
light: DIQMTQSPSSLSASVGDRVTITCRASQDISSYLNWYQQKPGKAPKLLIYSTSRLNSGVPSRFSGSGSGTDFTLTISSLQPEDFATYYCQQDIKHPTFGQGTKVEIKRTVAAPSVFIFPPSDEQLKSGTASVVCLLNNFYPREAKVQWKVDNALQSGNSQESVTEQDSKDSTYSLSSTLTLSKADYEKHKVYACEVTHQGLSSPVTKSFNRGEC
heavy: EVQLVQSGAEVKKPGSSVKVSCKASGFTFTDYIMHWVRQAPGQGLEWMGYINPYNDDTEYNEKFKGRVTITADKSTSTAYMELSSLRSEDTAVYYCARSIYYYDAPFAYWGQGTLVTVSSASTKGPSVFPLAPCSRSTSESTAALGCLVKDYFPEPVTVSWNSGALTSGVHTFPAVLQSSGLYSLSSVVTVPSSSLGTKTYTCNVDHKPSNTKVDKRV[human IgG4 Fc with S228P (EU numbers) omitted]
notes: Humanized Ab-19, IgG4 version; also called Ab-20; Ab20
B1 gave a Kd of 0.0158 nM, a koff of 4.16e-05 s⁻¹ and a kon of 2.62e+06 M⁻¹ s⁻¹.
